Assay results reported in the RNAGym collection of RNA variant scans (doi:10.1073/pnas.2313332121).
Variants at the background level are over-represented here.

B1: TPR 5TU (parent)
chain: GGAUCUUCUCGAUCUAACAAAAAAGACAAAUCUGCCACAAAGCUUGAGAGCAUCUUCGGAUGCAGAGGCGGCAGCCUUCGGUGGCGCGAUAGCGCCAACGUUCUCAACUAUGACACGCAAAACGCGUGCUCCGUUGAAUGGAGUUUAUCAUG

Variants of: B1
Test: polymerase ribozyme fitness, log enrichment relative to wild type (log ratio); higher = more active; in vitro selection for triplet polymerase activity
Outline: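 Libraries of mutants in each subunit of a heterodimeric triplet polymerase ribozyme were generated by PCR and transcribed. In triplicate, each went through one in vitro selection round: annealing with biotinylated primer, partner subunit and triplets; frozen incubation at −7 °C; gel excision of extended constructs; streptavidin-bead capture; RT-PCR. Fitness, taken from Illumina sequencing of input and output libraries, is the logarithm of a genotype's enrichment over wild-type enrichment, averaged across replicates with inverse-variance weights. The logarithm is base 2, and genotypes needed ≥10 input reads and ≥1 read per output to be kept.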

Variant | polymerase ribozyme fitness (log ratio)
U53A G94U U148G | ≤ -4.2
U53C G58C C93U C96G | ≤ -4.2
C54U A60C A89C C116U C125U A142C | ≤ -4.2
U53G C75G C76U C96A A115C | ≤ -4.2
U53A G80U C103G C116U A142G | ≤ -4.2
C54U G92U | -0.757
C54U U55A C72G U78C C87G C114A C116G | ≤ -4.2
U53A G83A | -1.64
U53A G84A G126A G128U G141U | ≤ -4.2
C54G A89G G100U A106G A137C | ≤ -4.2
U53G G58A | -1.53
C54G G59U A60U C96G G133U U144G | ≤ -4.2
U53A G67A G68U G80C A142G C149A | ≤ -4.2
C54U C95U A107G U130C C131A | ≤ -4.2
C54G U146G | -2.99
C54U C69A G140C | ≤ -4.2
U53A G58A C69G G83A C123A U134G | ≤ -4.2
C54A C75A A91C A107G A110U | ≤ -4.2
U53G U148C | ≤ -4.2
U53G U56G C79A U90C | ≤ -4.2
C54A A73G G86A A150G | ≤ -4.2
U53G G59C U61A G88C G94U | ≤ -4.2
C54G C95G | -2.56
U53G U55A G62A C93A | ≤ -4.2

Variant | polymerase ribozyme fitness (log ratio)
C54G G86U | -3.24
C54G A60U C85G A107U U127A | ≤ -4.2
C54U G58C C69A A98G A115G C123U G152U | ≤ -4.2
C54A G58A G71U G117C A137G | ≤ -4.2
C54A G58C U77G | ≤ -4.2
C54G G94A | -1.68
C54A G84C A89C C93G U145A | ≤ -4.2
C54U G83C C85G A138G | ≤ -4.2
C54U C79A G83A C103G | ≤ -4.2
C54A U90A A91G | ≤ -4.2
C54U C79U A115G A120G A122U G141U | ≤ -4.2
C54A C93A | ≤ -4.2
C54U A66G C72U G81C C96A A107G G133U U145A | ≤ -4.2
C54U A66U C85U | ≤ -4.2
C54A A91G U104G U127A G152A | ≤ -4.2
C54G A89U A91U G92U A107U | ≤ -4.2
U53A G94C C105A C118U | ≤ -4.2
C54G G84C C85A U109G C114A C123G A138C U145A | ≤ -4.2
U53A G88U C93U | ≤ -4.2
C54U G59A A60U C95U G128U U130G | ≤ -4.2
U53G C54G C87U A106C G126A | ≤ -4.2
C54G U61A U90A G94U | ≤ -4.2
C54G C93U C95G | ≤ -4.2
U53A G71U C95U A137G | ≤ -4.2

Variant | polymerase ribozyme fitness (log ratio)
C54U A91U A107G C131U | ≤ -4.2
U53A G83C A115G C116U A150C | ≤ -4.2
U53A G152U | -3.33
C54G U111A C114U A150G | ≤ -4.2
C54U C95U A98G A142U | -1.61
C54A G71U U90A A91U U101G U102A G126U | ≤ -4.2
C54G G58C A60U G80C A91G C93U C105U C116G A137G | ≤ -4.2
C54G G81A C85A U90G G94A | ≤ -4.2
U53G U61A A97G A113U | -4.18
C54A A97C U104A A137U | ≤ -4.2
U53C C76G A121G A147U | ≤ -4.2
C54G U78A C87U C96U G140A | ≤ -4.2
C54A G67U G80U A98U C103A U139G G140U | ≤ -4.2
C54A G59C C85U A91U G94U G133C | ≤ -4.2
U53A G65U C72U U90A A142G | ≤ -4.2
C54G U55A G58U | 0.0801
U53A U61A C75A C76G C85U U127G U135G | ≤ -4.2
C54G C87A C131G U151C | ≤ -4.2
C54U C76A C87G A89G U145C | ≤ -4.2
C54U U55A C85A C95A A98G A106U | ≤ -4.2
C54A C105G U130C | -2.7
C54U C85U G88A A115G U135G G136A | ≤ -4.2
C54G G83U U127G | ≤ -4.2
U53A G84U | -1.26

Variant | polymerase ribozyme fitness (log ratio)
C54A C87G C103A C105G U109C A147C | ≤ -4.2
C54A C87U A91G G143A | ≤ -4.2
C54U A91U A97C G141C | ≤ -4.2
U53A U55G A66G C85G U111A A142C U146A | ≤ -4.2
C54A G59U C93A G94A G117U G141U | ≤ -4.2
C54U G83A A115U C118U G140U | ≤ -4.2
U53A U55A C96A U127C A138U | ≤ -4.2
C54U G83U | -0.319
C54U G83A | -0.655
U53C U55A C99U U111C | ≤ -4.2
U53G A137G | -2.32
C54A A91U U109C G140U U146C | ≤ -4.2
U53C C72U C132U | -3.52
U53A G70A G88A C96U C123U | ≤ -4.2
C54A G86U U130C A142C | ≤ -4.2
C54U G83A G117C G140A | ≤ -4.2
U53A U82C C108U A137U U146G | ≤ -4.2
C54A C57G A91G G92A U144C | ≤ -4.2
U53A G71C U77A U109G A122G | ≤ -4.2
U53A G70A G71C G141C | ≤ -4.2
U53C G58C G70C G86C C95A | ≤ -4.2
C54A G92A | ≤ -4.2
U53A U55A | -2.2
U53G C96A A106C A115G G126A C149A | ≤ -4.2

Variant | polymerase ribozyme fitness (log ratio)
U53G U56A C75A C87A U127C G141C | ≤ -4.2
C54G C72U G86C A91G | ≤ -4.2
C54U A91G C93U G126A G141U U146A | ≤ -4.2
U53A G71C G88A | ≤ -4.2
C54A U61C C63A G67A G86A C103A U145G C149U | ≤ -4.2
C54G C87G U109C G117U | ≤ -4.2
C54U A73G G83U C95G G100U U135A | ≤ -4.2
C54A C57G C87U A150G | -3.99
U53A U61A C85U A97U C108U | ≤ -4.2
C54G C57U G74A C87U A98G A122U G133U | ≤ -4.2
C54U G70A C72G C85G G92U C95A C116A U127G | ≤ -4.2
C54G C79A C93A | ≤ -4.2
U53G A107C | ≤ -4.2
C54U G71A A97U C105U A106C | ≤ -4.2
U53A G80C | ≤ -4.2
U53A U55A C95A A98G C123U G143C | -3.34
C54G C76A C93G C123U | ≤ -4.2
U53G U135G U148A | ≤ -4.2
C54G G92C G141C C149G | ≤ -4.2
U53C G59U A64G C99G C125G A137C | ≤ -4.2
C54G G84A C87U A122C U127C A142U | ≤ -4.2
C54G C85U A91C C99A C105A A120U | ≤ -4.2
C54A C75G C87G U146C | ≤ -4.2
C54U C76U G83A A110G A142U | ≤ -4.2

Variant | polymerase ribozyme fitness (log ratio)
U53A G100A A110G A142C | ≤ -4.2
U53A U56A C87A G143U | ≤ -4.2
C54U C79G G83A A106U C125G | ≤ -4.2
U53G G71C G86A | ≤ -4.2
U53A G136U U144G | -1.85
C54A C75U C93U | -2.29
U53G U61A C93A G124A A147G | ≤ -4.2
U53A G83A C103U C132U | -3.25
C54U G65U A73U A91U G141U | ≤ -4.2
U53A G86C A91U | ≤ -4.2
C54U G68U U82A G94A A97C G117A A138C G141A | ≤ -4.2
U53C U77C C87U C103U C114U | ≤ -4.2
C54G C85A G92C G133U U146G | ≤ -4.2
C54G C75U A97U U101C | ≤ -4.2
C54A C95A U144G A150G | ≤ -4.2
C54U G84C G100A G117A G126A | ≤ -4.2
C54U C75A G86U A137U | ≤ -4.2
C54A C85U C95U C99U A121C G136U | ≤ -4.2
U53G G59U C125U G141C | -3.86
U53A U55C A66C C103A C105G | ≤ -4.2
C54A G67A C103G | ≤ -4.2
C54U G84U C129U A137G A147C U148A | ≤ -4.2
U53A G70C C85U U151C | ≤ -4.2
C54G G94U C149G | ≤ -4.2

Variant | polymerase ribozyme fitness (log ratio)
C54G G68A C76A C95U | ≤ -4.2
U53G G74A C114G | ≤ -4.2
C54G A60G C95G | -2.44
U53A U55G A64G A73C C76U G92C | ≤ -4.2
U53G G83C G86U | ≤ -4.2
U53C C96G U104C C132U G152U | ≤ -4.2
U53A G68A C93U U139A G143C | ≤ -4.2
C54A C93A A106U A142U | ≤ -4.2
U53G C79A C87A U102G | ≤ -4.2
C54A U55A U77G A121C A137U | ≤ -4.2
U53A U102G A120G G133C C149A | ≤ -4.2
C54G C95A C118G | -2.03
U53A G62A G67C G70U A89U C95U | ≤ -4.2
C54U G68C A73G G86C G92A A106G G133A | ≤ -4.2
U53A U77A G84A C108U | ≤ -4.2
U53A G59A G71A C103A | ≤ -4.2
C54A C132A U139C | ≤ -4.2
C54U A115U | -2.4
C54U C87A C103U A120G | ≤ -4.2
U53A U55A G65C C75G G83U U101C U146G | ≤ -4.2
U53G C63U G86U C114U | ≤ -4.2
C54G G68U C87A U104G | ≤ -4.2
U53G G59A G65C G86U | ≤ -4.2
